This experiment concerns the target T1, mouse LEP-R extracellular domain (mLEP-RECD) (mouse, UniProt P48356 22-839).
T1 sequence (looked up): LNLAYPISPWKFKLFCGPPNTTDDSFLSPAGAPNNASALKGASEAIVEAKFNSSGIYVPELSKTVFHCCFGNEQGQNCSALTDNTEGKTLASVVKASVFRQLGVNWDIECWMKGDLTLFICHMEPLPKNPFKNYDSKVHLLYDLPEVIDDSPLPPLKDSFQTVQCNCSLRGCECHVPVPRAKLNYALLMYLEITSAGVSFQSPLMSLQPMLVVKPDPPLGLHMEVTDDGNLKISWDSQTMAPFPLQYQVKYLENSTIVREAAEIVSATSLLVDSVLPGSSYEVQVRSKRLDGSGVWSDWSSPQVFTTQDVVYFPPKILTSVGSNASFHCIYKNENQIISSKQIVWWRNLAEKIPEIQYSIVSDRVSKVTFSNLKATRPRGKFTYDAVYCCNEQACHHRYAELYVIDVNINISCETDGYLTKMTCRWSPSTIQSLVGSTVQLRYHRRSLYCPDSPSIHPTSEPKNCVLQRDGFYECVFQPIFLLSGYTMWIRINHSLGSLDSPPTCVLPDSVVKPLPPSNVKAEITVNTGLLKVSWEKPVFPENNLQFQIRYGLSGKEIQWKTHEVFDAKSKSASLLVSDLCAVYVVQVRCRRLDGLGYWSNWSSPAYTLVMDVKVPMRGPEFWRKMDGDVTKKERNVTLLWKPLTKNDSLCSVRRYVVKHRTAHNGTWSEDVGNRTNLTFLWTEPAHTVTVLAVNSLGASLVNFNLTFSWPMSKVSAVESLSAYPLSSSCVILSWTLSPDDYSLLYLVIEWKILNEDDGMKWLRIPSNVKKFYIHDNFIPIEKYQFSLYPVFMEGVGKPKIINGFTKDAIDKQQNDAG
The experiment in a line: SEC-MALLS.

B1: murinized human Leptin G139L (ligand)
chain: not shown
Consider B1, for which the binding result is “binds”.

The values are drawn from publication doi:10.1101/2022.12.01.518327 (bioRxiv, 2022).
